Drawing on the supplement of paper PMC9938546, this text covers HCT116-GFP viability for 22 molecules.

Where a name gives a salt, the structure may show the parent alone. The list shows a part of the results. Single values are uncertain, as repeats are few or missing.
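Further: viability estimated indirectly by image-based GFP quantification with live-cell imaging of the constitutively GFP-expressing human colorectal cancer line, no immune cells added.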

The subject of the experiment is HCT116-GFP. The experiment is described as follows: HCT116-GFP viability (GFP intensity) relative to untreated control, monoculture; higher = less cancer cell killing. The following applies: culture: HCT116-GFP monoculture; 10 µM; 72 h.
As to `CC(=O)O[C@]1(C(C)=O)CC[C@H]2[C@@H]3C=C(Cl)C4=CC(=O)CC[C@]4(C)[C@H]3CC[C@@]21C` [Chlormadinone acetate], the HCT116-GFP viability was 85.3%.
With `Clc1cccc(Cl)c1NC1=NCCN1` [Clonidine hydrochloride], the HCT116-GFP viability turned out to be 98.3%.
Under `O=C1[C@H]2CCCC[C@H]2C(=O)N1CCCCN1CCN(c2nsc3ccccc23)CC1` [Perospirone] stands 96.8%; under `CO[C@H]1/C=C/O[C@@]2(C)Oc3c(C)c(O)c4c(O)c(c5c(nc6cc(C)ccn65)c4c3C2=O)NC(=O)/C(C)=C\C=C\[C@H](C)[C@H](O)[C@@H](C)[C@@H](O)[C@@H](C)[C@H](OC(C)=O)[C@@H]1C` [Rifaximin], 60.4%; under `Nc1nc2c(ncn2COC(CO)CO)c(=O)[nH]1` [Ganciclovir], 96.4%.
Regarding `CN(C)C(=N)NC(=N)N` [Metformin hydrochloride], the HCT116-GFP viability was 98.2%.
For `NCCCCCC(=O)O` [Aminocaproic acid], the HCT116-GFP viability is 124%.
With `CNCCc1ccccn1` [Betahistine mesylate], the HCT116-GFP viability came out at 96.9%.
With `CC=CC(=O)N(CC)c1ccccc1C` [Crotamiton], the HCT116-GFP viability was 104%.
Consider `O=C(c1ccc(F)cc1)C1CCN(CCn2c(=O)[nH]c3ccccc3c2=O)CC1` [Ketanserin tartrate hydrate], for which the HCT116-GFP viability stood at 103%.
Under `CCN(CC)C(=O)c1ccc(O)c(OC)c1` [Ethamivan] stands 89.2%; under `Cc1[nH]cnc1CN1CCc2c(c3ccccc3n2C)C1=O` [Alosetron hydrochloride], 29.8%.
Under `CCCOc1ccc2[nH]c(NC(=O)OC)nc2c1` [Oxibendazol] stands 12.5%; under `CN(CCCN1c2ccccc2CCc2ccccc21)CC(=O)c1ccc(Cl)cc1` [Lofepramine], 99%; under `CN(C)CCOC(c1ccccc1)c1ccccc1.Cn1c(=O)c2[nH]c(Cl)nc2n(C)c1=O` [Dimenhydrinate], 98.5%.
As to `O=C1NCC2(CCN(CCc3ccccc3)CC2)O1` [Fenspiride hydrochloride], the HCT116-GFP viability stood at 105%.
`Clc1ccc2c(c1)CCc1cccnc1C2=C1CCNCC1` [Desloratadine]: the HCT116-GFP viability was determined as 49.6%.
`CCCCCCNC(=O)n1cc(F)c(=O)[nH]c1=O` [Carmofur]: the HCT116-GFP viability was 37.6%.
The figure for `CCCOc1ccccc1-c1nc2[nH]nnc2c(=O)[nH]1` [Zaprinast] is 93.9%; for `COc1ccc(Cl)cc1C(=O)NCCc1ccc(S(=O)(=O)NC(=O)NC2CCCCC2)cc1` [Glibenclamide] it is 90.2%.
Turning to `Nc1nc(=O)n([C@@H]2CS[C@H](CO)O2)cc1F` [(-)-Emtricitabine], the HCT116-GFP viability came to 91.2%.
Consider `CC#C[C@]1(O)CC[C@H]2[C@@H]3CCC4=CC(=O)CCC4=C3[C@@H](c3ccc(N(C)C)cc3)C[C@@]21C` [Mifepristone], for which the HCT116-GFP viability came to 80.9%.
